Experimental data reported in publication PMC3876883 (Science signaling, 2012).

Target: T1, wild-type K2P1 without a fluorescent protein tag (human, UniProt O00180 1-336)
T1 sequence (looked up): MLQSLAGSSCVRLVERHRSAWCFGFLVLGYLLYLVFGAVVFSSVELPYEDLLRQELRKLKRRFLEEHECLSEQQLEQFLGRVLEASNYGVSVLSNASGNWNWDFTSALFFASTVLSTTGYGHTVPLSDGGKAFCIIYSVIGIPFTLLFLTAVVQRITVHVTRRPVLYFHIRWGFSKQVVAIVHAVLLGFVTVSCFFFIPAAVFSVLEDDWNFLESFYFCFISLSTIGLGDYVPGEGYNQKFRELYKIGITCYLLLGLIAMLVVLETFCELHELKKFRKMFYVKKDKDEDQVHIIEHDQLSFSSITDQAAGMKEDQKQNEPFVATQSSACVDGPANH
Test: single-particle photobleaching

- stoichiometry N: 2 SUMO monomers per homodimeric channel
B1: GFP-SUMO1 (natural protein)
chain: not shown
